The whole screen tested about 310,000 compounds, of which about 14,000 (4.5%) showed an effect of 50% or more. The effect is printed as a negative number. Some of the results follow.
target: human ether-à-go-go-related gene (hERG) potassium channel (human, UniProt Q12809); test: primary screen, population patch clamp on CHO cells stably expressing hERG
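Note: peak tail current of the secondary pulse compared with the same well before compound.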

Sequence of human ether-à-go-go-related gene (hERG) potassium channel (Q12809 whole entry, looked up): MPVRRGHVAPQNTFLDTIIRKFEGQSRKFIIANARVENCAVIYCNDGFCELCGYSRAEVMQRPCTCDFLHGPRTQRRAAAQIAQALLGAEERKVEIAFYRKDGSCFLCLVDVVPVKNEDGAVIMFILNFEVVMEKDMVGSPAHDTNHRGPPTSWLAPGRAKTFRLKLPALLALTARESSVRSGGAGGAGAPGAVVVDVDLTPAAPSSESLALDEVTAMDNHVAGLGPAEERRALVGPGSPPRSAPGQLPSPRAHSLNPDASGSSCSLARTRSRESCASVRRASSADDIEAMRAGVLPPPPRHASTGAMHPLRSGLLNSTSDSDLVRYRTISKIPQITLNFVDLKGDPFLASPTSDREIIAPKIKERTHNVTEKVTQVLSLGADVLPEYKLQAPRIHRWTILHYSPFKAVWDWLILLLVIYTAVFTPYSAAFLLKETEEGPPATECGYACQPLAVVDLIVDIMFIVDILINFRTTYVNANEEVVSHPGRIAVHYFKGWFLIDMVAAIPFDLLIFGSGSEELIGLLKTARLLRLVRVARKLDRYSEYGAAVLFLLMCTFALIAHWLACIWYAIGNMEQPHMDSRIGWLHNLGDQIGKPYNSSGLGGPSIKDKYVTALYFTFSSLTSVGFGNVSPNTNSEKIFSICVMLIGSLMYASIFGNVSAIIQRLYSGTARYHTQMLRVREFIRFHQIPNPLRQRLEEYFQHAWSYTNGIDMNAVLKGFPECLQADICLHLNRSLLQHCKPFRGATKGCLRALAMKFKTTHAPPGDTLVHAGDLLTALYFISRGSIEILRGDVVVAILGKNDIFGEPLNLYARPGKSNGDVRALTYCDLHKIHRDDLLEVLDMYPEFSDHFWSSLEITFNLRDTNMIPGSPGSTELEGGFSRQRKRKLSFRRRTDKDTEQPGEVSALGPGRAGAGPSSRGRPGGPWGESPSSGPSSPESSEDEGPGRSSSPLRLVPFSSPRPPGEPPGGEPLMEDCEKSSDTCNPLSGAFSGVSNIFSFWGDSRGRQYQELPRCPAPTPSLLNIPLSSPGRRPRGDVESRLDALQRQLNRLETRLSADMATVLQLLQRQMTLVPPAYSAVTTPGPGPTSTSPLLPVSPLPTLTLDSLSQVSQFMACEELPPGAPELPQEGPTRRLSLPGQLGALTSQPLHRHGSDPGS

Q: For COc1ccc(NC(=O)Nc2cccnc2)cc1, which “hERG current change (%, negative = inhibition) at 10uM” value is on record?
A: -3.82%

Q: Which “hERG current change (%, negative = inhibition) at 10uM” value does the source give for Cc1ccsc1C(=O)C1CCCN(Cc2cc3ccccc3o2)C1 (centres unmarked) here?
A: -23.7%

Q: With COc1cccc(/C=N/NC(=O)CNC(=O)c2ccc(S(=O)(=O)N3CCOCC3)cc2)c1OC as the compound, how does the “hERG current change (%, negative = inhibition) at 10uM” value read?
A: -4.96%

Q: Which “hERG current change (%, negative = inhibition) at 10uM” value does the source give for Nc1nc2n(n1)C(c1ccco1)CC(c1ccccc1)N2 (centres unmarked) here?
A: -6.26%

Q: For O=C(Nc1nnc(Cc2ccc(Cl)cc2)s1)c1ccncc1, which “hERG current change (%, negative = inhibition) at 10uM” value is on record?
A: -8.54%

Q: With COc1cc(OC)c(C=O)c(OC(=O)N2CCOCC2)c1 as the compound, how does the “hERG current change (%, negative = inhibition) at 10uM” value read?
A: 17.4%

Q: Which “hERG current change (%, negative = inhibition) at 10uM” value does the source give for Cn1c(CNC(=O)c2ccc(Cl)c(Cl)c2)nnc1SCC(=O)Nc1sc2c(c1C#N)CCCC2 here?
A: 4.03%

Q: With COc1cccc(CN(C)C(=O)c2cccc(S(=O)(=O)NCc3ccccc3)c2)c1OC as the compound, how does the “hERG current change (%, negative = inhibition) at 10uM” value read?
A: -38%

Q: How did the “hERG current change (%, negative = inhibition) at 10uM” value turn out when CC1CCCN(C(=O)c2ccc(Br)c(S(=O)(=O)N3CCOCC3)c2)C1 (centres unmarked) was run?
A: -7.24%

Q: With O=C(CN(C(=O)c1ccc2c(c1)OCCO2)c1ccccc1)NCC1CCCO1 (centres unmarked) as the compound, how does the “hERG current change (%, negative = inhibition) at 10uM” value read?
A: 19.5%

Q: For CCOc1ccc(C(C)NC(=O)c2cccs2)cc1OCC (centres unmarked), which “hERG current change (%, negative = inhibition) at 10uM” value is on record?
A: 7.74%

Q: Which “hERG current change (%, negative = inhibition) at 10uM” value does the source give for O=C(CSc1nc(-c2ccccc2)nc2ccccc12)Nc1cccc(C(=O)O)c1 here?
A: 8.91%

Q: COc1ccc(-c2ccc(SCc3ccccn3)nn2)cc1OC was tested. Which “hERG current change (%, negative = inhibition) at 10uM” value did it give?
A: 1.59%

Q: CC1CCc2c(sc(NC(=O)CCCn3cnc([N+](=O)[O-])n3)c2C(N)=O)C1 (centres unmarked) was tested. Which “hERG current change (%, negative = inhibition) at 10uM” value did it give?
A: -34%

Q: For CCOC(=O)c1sc(=NC(=O)c2ccc(OC(C)C)cc2)n(C)c1C, which “hERG current change (%, negative = inhibition) at 10uM” value is on record?
A: 10.8%

Q: With Cn1cc(C(=O)C(=O)NC2CCCCC2)c2ccccc21 as the compound, how does the “hERG current change (%, negative = inhibition) at 10uM” value read?
A: 1.04%

Q: With COc1ccc(/C=C(\NC(=O)c2ccc(OC)c(OC)c2)C(=O)N2CCN(C)CC2)cc1 as the compound, how does the “hERG current change (%, negative = inhibition) at 10uM” value read?
A: -19.4%

Q: For CC1Cc2ccccc2N1C(=O)CN1C(=O)NC(C)(CCc2ccccc2)C1=O (centres unmarked), which “hERG current change (%, negative = inhibition) at 10uM” value is on record?
A: -7.9%

Q: With Cc1ccc(C(=O)NC2=NCCS2)cc1Cl as the compound, how does the “hERG current change (%, negative = inhibition) at 10uM” value read?
A: 8.26%

Q: How did the “hERG current change (%, negative = inhibition) at 10uM” value turn out when CCc1cccc(C)c1NC(=O)c1ccccc1 was run?
A: 5.93%

Q: How did the “hERG current change (%, negative = inhibition) at 10uM” value turn out when COCC(C)NC(=O)C1c2ccccc2Oc2ccccc21 (centres unmarked) was run?
A: 16%

Q: With COc1ccc(OCC(O)CN(C2CCCCC2)C2CCCCC2)cc1.Cl (centres unmarked) as the compound, how does the “hERG current change (%, negative = inhibition) at 10uM” value read?
A: -59.5%

Q: With COc1ccc(C(=O)CCC(C)(C)[N+](=O)[O-])cc1OC as the compound, how does the “hERG current change (%, negative = inhibition) at 10uM” value read?
A: 4.96%

Q: For COC(=O)CN(c1nc(C)c(Cl)c(OC)n1)S(=O)(=O)c1ccc(C)cc1, which “hERG current change (%, negative = inhibition) at 10uM” value is on record?
A: -11.8%

Q: O=C(Nc1ccccc1-c1nnc(SCc2ccc(Cl)cc2Cl)o1)c1ccccc1 was tested. Which “hERG current change (%, negative = inhibition) at 10uM” value did it give?
A: 2.32%

Q: Which “hERG current change (%, negative = inhibition) at 10uM” value does the source give for O=C(Nc1ccc(Cl)cn1)c1cc2ccccc2o1 here?
A: 16.2%

Q: With CCc1ccc(C(=O)COc2ccc(NC(C)=O)cc2)cc1 as the compound, how does the “hERG current change (%, negative = inhibition) at 10uM” value read?
A: -22.8%

Q: With Cc1ccccc1NC(=S)NC(NC(=O)c1ccccc1C)C(Cl)(Cl)Cl (centres unmarked) as the compound, how does the “hERG current change (%, negative = inhibition) at 10uM” value read?
A: 16.9%

Q: Which “hERG current change (%, negative = inhibition) at 10uM” value does the source give for CCOc1ccccc1N(CC(=O)Nc1ccccc1C(=O)NCc1ccco1)S(C)(=O)=O here?
A: -26.9%

Q: Cc1nn2c(NCCN3CCOCC3)c3c(nc2c1-c1ccccc1)CCCC3 was tested. Which “hERG current change (%, negative = inhibition) at 10uM” value did it give?
A: -76.5%

Q: With Cc1ccc(NC(=S)NCCN2CCOCC2)cc1 as the compound, how does the “hERG current change (%, negative = inhibition) at 10uM” value read?
A: -10.2%

Q: How did the “hERG current change (%, negative = inhibition) at 10uM” value turn out when Cc1ccc(NC(=O)NCC(c2cccnc2)N2CCOCC2)cc1 (centres unmarked) was run?
A: 10.2%

Q: For Clc1ccc(OCc2nn3c(C4CCCCC4)nnc3s2)c(Cl)c1, which “hERG current change (%, negative = inhibition) at 10uM” value is on record?
A: 5.95%

Q: For O=C(Cc1ccccc1)Nc1cc2c(cc1Cl)OCCCO2, which “hERG current change (%, negative = inhibition) at 10uM” value is on record?
A: 9.61%

Q: How did the “hERG current change (%, negative = inhibition) at 10uM” value turn out when Cc1cccc2cc3ccccc3nc12 was run?
A: 4.66%

Q: With CN(C)C=Nc1c(C(=O)c2ccccc2)sc2nccc(N(C)C)c12 as the compound, how does the “hERG current change (%, negative = inhibition) at 10uM” value read?
A: -27.6%

Q: For CN(Cc1ccccc1)C(=O)COC(=O)c1ccc(S(=O)(=O)N(C)C)cc1, which “hERG current change (%, negative = inhibition) at 10uM” value is on record?
A: -2.9%

Q: C=CCN(c1ccccc1)S(=O)(=O)c1ccc(Cl)c(C(=O)OCC(=O)N(C)C2CCS(=O)(=O)C2)c1 (centres unmarked) was tested. Which “hERG current change (%, negative = inhibition) at 10uM” value did it give?
A: -15.7%

Q: With COc1ccc(N=Cc2cc(Cc3ccccc3Cl)cc([N+](=O)[O-])c2O)cc1OC as the compound, how does the “hERG current change (%, negative = inhibition) at 10uM” value read?
A: 13.7%

Q: How did the “hERG current change (%, negative = inhibition) at 10uM” value turn out when O=C(NC1=NCCS1)c1ccncc1 was run?
A: -10.4%

Q: With COc1ccc2oc(C(=O)OCC(=O)N(Cc3ccccc3)C(C)C)c(C)c2c1 as the compound, how does the “hERG current change (%, negative = inhibition) at 10uM” value read?
A: 8.59%

Q: Which “hERG current change (%, negative = inhibition) at 10uM” value does the source give for CCc1ccc(NC(=O)CSc2nc(=O)n(CCCN(C)C)c3c2CCC3)cc1 here?
A: -42.3%

Q: With COc1cc(NC(=O)C2CCN(S(=O)(=O)c3ccc(Cl)cc3)CC2)ccc1-n1cnnn1 as the compound, how does the “hERG current change (%, negative = inhibition) at 10uM” value read?
A: 9.28%

Q: Which “hERG current change (%, negative = inhibition) at 10uM” value does the source give for O=C(NCCS(=O)(=O)N1CCN(Cc2ccccc2)CC1)c1ccccc1 here?
A: -17.1%

Q: With O=C(CCc1nnc2ccc(N3CCOCC3)nn12)Nc1ccc(F)cc1F as the compound, how does the “hERG current change (%, negative = inhibition) at 10uM” value read?
A: -15.8%

Q: COc1ccc(C(=O)N(C)C2(C)CCS(=O)(=O)C2)cc1OC (centres unmarked) was tested. Which “hERG current change (%, negative = inhibition) at 10uM” value did it give?
A: -5.65%

Q: With COc1cccc2c(=O)n(CC(=O)Nc3cccc(F)c3)ccc12 as the compound, how does the “hERG current change (%, negative = inhibition) at 10uM” value read?
A: 14%

Q: Cc1nn(C(=O)c2nn(C)cc2[N+](=O)[O-])c(C)c1Cl was tested. Which “hERG current change (%, negative = inhibition) at 10uM” value did it give?
A: 21.9%

Q: For COc1ccc(NC(=O)CN(C)C(=O)/C=C/c2cn(-c3ccccc3)nc2-c2ccc(F)cc2)cc1, which “hERG current change (%, negative = inhibition) at 10uM” value is on record?
A: -2.48%

Q: How did the “hERG current change (%, negative = inhibition) at 10uM” value turn out when COc1ccc(NS(=O)(=O)c2cccc(C(=O)NNC(=O)c3ccc(=O)[nH]c3)c2)cc1 was run?
A: -22%

Q: With CCNC(=O)Cn1c(=O)c(=O)n(Cc2ccccc2)c2ccc(Cl)cc21 as the compound, how does the “hERG current change (%, negative = inhibition) at 10uM” value read?
A: -19.9%

Q: O=C(NCc1ccc2c(c1)OCO2)c1cccc(S(=O)(=O)N2CCCCC2)c1 was tested. Which “hERG current change (%, negative = inhibition) at 10uM” value did it give?
A: -20.3%

Q: For Cc1cccc(N2CCN(C(=O)c3cc4c(=O)n(C)c5ccccc5c4n3C)CC2)c1C, which “hERG current change (%, negative = inhibition) at 10uM” value is on record?
A: 0.656%

Q: How did the “hERG current change (%, negative = inhibition) at 10uM” value turn out when COc1ccc(-c2cc(C)no2)cc1S(=O)(=O)NCCCN1CCCCCC1 was run?
A: -17.4%

Q: How did the “hERG current change (%, negative = inhibition) at 10uM” value turn out when COc1ccc(C2CCCN2C(=O)Nc2cccc(C(C)=O)c2)cc1OC (centres unmarked) was run?
A: -9.9%

Q: With C=CCCC1(C)C(=O)N(c2ccccc2)c2ccccc21 (centres unmarked) as the compound, how does the “hERG current change (%, negative = inhibition) at 10uM” value read?
A: -3.56%

From PMC4336329 (PLoS ONE, 2015)
